Data from PubChem BioAssay AID488969 (Vanderbilt High Throughput Screening Facility, 2010).
Whole data set: some 110,000 compounds, median “z-score” near -0.1, cut for the highest 2% near 2. The list shows a part of the results. Calls of active or inactive are those of the source.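 The calls were made as follows: active = z-score in the third read window above 3 or below -3; inactive = the rest.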

The compounds below were run against Metabotropic glutamate receptor 8 (Rattus norvegicus) (UniProt P70579) (assay: rat mGluR8 modulators via GIRK flux, primary screen, cell-based, thallium flux, HTS (AID 488969)). Details: HEK293 rat mGluR8, GIRK (G protein-gated inwardly rectifying potassium channel) thallium flux, FluoZin2; at 10 µM; stronger effect = higher value; submaximal glutamate (EC20) added with thallium.
Chain of UniProt P70579 (P70579 whole entry, looked up): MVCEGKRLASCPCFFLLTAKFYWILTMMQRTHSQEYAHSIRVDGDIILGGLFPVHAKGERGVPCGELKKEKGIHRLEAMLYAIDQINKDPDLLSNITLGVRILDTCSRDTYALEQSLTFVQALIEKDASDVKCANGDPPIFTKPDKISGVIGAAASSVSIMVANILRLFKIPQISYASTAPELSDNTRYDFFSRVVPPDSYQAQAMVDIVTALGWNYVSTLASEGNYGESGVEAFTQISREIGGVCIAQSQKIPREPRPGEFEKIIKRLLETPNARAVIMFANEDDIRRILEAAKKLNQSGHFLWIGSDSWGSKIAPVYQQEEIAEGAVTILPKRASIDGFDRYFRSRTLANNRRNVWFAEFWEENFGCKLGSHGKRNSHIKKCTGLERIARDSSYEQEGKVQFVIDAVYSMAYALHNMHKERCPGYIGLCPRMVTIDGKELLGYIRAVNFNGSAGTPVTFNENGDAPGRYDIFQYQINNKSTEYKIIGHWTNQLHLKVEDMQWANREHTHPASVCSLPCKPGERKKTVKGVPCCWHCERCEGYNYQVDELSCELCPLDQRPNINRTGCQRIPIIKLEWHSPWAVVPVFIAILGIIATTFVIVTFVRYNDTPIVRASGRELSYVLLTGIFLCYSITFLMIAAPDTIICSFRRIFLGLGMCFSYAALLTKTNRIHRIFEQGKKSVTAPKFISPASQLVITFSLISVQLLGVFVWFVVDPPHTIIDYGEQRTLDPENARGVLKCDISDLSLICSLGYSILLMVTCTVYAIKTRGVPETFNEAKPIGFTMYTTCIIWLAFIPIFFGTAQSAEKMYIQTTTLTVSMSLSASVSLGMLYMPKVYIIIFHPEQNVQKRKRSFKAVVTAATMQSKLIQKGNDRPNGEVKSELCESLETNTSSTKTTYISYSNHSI
For `CCOc1cc(C(=O)NCCN2CCOCC2)cc(OCC)c1OCC`, the z-score was -0.462.
`CCSC1=NC(C)(C)C=C(C)N1` was tested, and the z-score was -0.0899.
Compound `Cc1ccnc(NS(=O)(=O)c2ccc(N3C(=O)c4c(Cl)c(Cl)c(Cl)c(Cl)c4C3=O)cc2)n1` has a z-score of -0.03.
With `O=C(Nc1ccccc1C(=O)N1CCCCCC1)c1cccc(S(=O)(=O)N2CCOCC2)c1` the z-score was -0.166.
Work on `CC(=O)c1sc(NC(=O)C(C)(C)C)nc1C` yielded a z-score of 1.3.
For `Cc1nc2ncnn2c(C)c1CCC(=O)NCCCN1CCN(c2cccc(Cl)c2)CC1`, the z-score was -0.195.
`O=[N+]([O-])c1cccnc1NCCNc1ncc(C(F)(F)F)cc1Cl` showed a z-score of -0.0413.
`COc1ccc2nc(C)cc(N3CCOCC3)c2c1` was tested, and the z-score was -0.176.
`Cc1ccc(-c2nc(=S)c3c(n2CC2CCCO2)CC(C)(C)OC3)cc1` (centres undefined) was tested, and the z-score was -0.282.
Work on `Cc1nc(-c2cccc(NS(=O)(=O)c3ccccc3)c2)cs1` yielded a z-score of 0.352.
Compound `COc1ccc(N2C(=O)C3CCCN3C2c2cccc(C)c2)cc1Cl` (centres undefined) has a z-score of -0.737.
In the case of `Cc1ccc(OCCSCc2nnc(NC(=O)Nc3cccc(Cl)c3)s2)cc1`, the z-score is reported as -0.203.
`COc1ccc(NC(=O)c2ccccc2SC)cc1OC` showed a z-score of -0.00811.
For `O=C(NCc1cccs1)c1cccnc1Cl`, the z-score was -0.317.
With `O=C(NCc1ccco1)c1ccc(S(=O)(=O)N2CCCc3ccccc32)cc1` the z-score was -0.674.
Work on `O=C(COc1ccc(Br)cc1)N1CCN(c2ccccc2)CC1` yielded a z-score of -0.153.
`CN(CC1COc2ccccc2O1)C(=S)Nc1ccccc1` (centres undefined) showed a z-score of -0.584.
For `COc1ccccc1NC(C)C(=O)N/N=C/c1ccccc1OCc1cccc(Br)c1` (centres undefined), the z-score was -0.17.
`CCN(CC)S(=O)(=O)c1ccc(NCc2ccccc2)nc1` showed a z-score of -0.962.
`CCCCN(CCCC)CCNC(=O)CNC(=O)c1cccs1` showed a z-score of 0.14.
`Clc1cccc(NC2=NCCC2)c1` showed a z-score of -0.147.
`COc1ccc(-c2csc(NC(=S)NC(=O)/C=C/c3ccco3)n2)cc1OC` showed a z-score of -0.318.
Compound `Cc1cc(C(=O)N2CCN(C(=O)C3CCCO3)CC2)no1` (centres undefined) has a z-score of 0.0683.
`CC(=C1C(=O)c2ccccc2C1=O)N1CCc2ccccc2C1` gave a z-score of -0.182.
`NS(=O)(=O)c1ccc(CCNC(=O)Nc2ccc(Cl)c(Cl)c2)cc1` was tested, and the z-score was -0.0212.
Work on `O=C1C2C3C=CC(C4CC34)C2C(=O)N1/N=C/c1ccc(-c2ccc(Cl)cc2[N+](=O)[O-])o1` (centres undefined) yielded a z-score of -0.0581.
With `CN(C)CCSc1nnc2sc3ccccc3n12` the z-score was -0.0362.
Work on `CNC(=S)N/N=C/c1ccc2c(c1)OCCO2` yielded a z-score of 0.205.
Work on `O=C(COC(=O)COc1ccccc1[N+](=O)[O-])NC1CCCC1` yielded a z-score of -0.559.
`CC1CCN(CCOc2cccc(Br)c2)CC1` showed a z-score of 0.339.
Work on `O=C(Oc1nsnc1N1CCOCC1)N1CCCCC1` yielded a z-score of 0.858.
`Cc1cccc(NC(=O)CSc2nnc(CCC(=O)Nc3ccc(C)c(Cl)c3)n2C)c1` showed a z-score of -0.116.
For `CCc1ccc(NC(=O)CSc2nc3cc(C(=O)OC)ccc3c(=O)n2CC2CCCO2)cc1` (centres undefined), the z-score was 0.287.
Compound `O=S1(=O)CCC(N2CCOCC2)C1` (centres undefined) has a z-score of 0.485.
Compound `O=C(c1ccc(CNS(=O)(=O)c2ccccc2)cc1)N1CCN(Cc2ccccc2)CC1` has a z-score of 0.0691.
With `CC(=O)c1c(C(C)=O)c(C)n(NC(=O)c2ccccc2Cl)c1C` the z-score was 0.687.
With `O=C(CSc1nnc(Cc2ccccc2)o1)Nc1ccc(Br)cn1` the z-score was 0.507.
With `COc1ccc(S(=O)(=O)NC2CC3CCC2C3)cc1Cl` (centres undefined) the z-score was 0.912.
Compound `CO/N=C/c1ccc(Sc2ccccc2)c([N+](=O)[O-])c1` has a z-score of -0.0163.
`Cc1ccccc1C(=O)N/N=C/c1ccncc1` was tested, and the z-score was 0.000549.
In the case of `CCN(CC)S(=O)(=O)c1cc([N+](=O)[O-])ccc1NNC(=O)Nc1ccc(Cl)c(Cl)c1`, the z-score is reported as 1.1.
`O=C(CSCc1ccc(F)cc1)NCc1ccco1` showed a z-score of -0.134.
For `Cc1cccc(-n2c(N)cc(=O)nc2SC(C)C(=O)NC2CCCCC2)c1` (centres undefined), the z-score was 0.676.
Work on `CCOC(=O)c1c(-c2ccccc2)csc1NC(=O)c1cccc(N2C(=O)CCC2=O)c1` yielded a z-score of 0.129.
`Cc1cccc(N(C)C(=O)c2cc3cc4ccc(C)cc4nc3o2)c1` gave a z-score of 0.275.
In the case of `Cc1c(Cl)c(C(=O)N2CCCc3ccccc32)nn1C`, the z-score is reported as -0.0791.
For `CCOc1ccc(-n2cnnn2)cc1S(=O)(=O)NCc1ccccc1`, the z-score was 0.825.
`COc1ccc(NC(C#N)c2ccccc2OCc2ccccc2)cc1` (centres undefined) gave a z-score of -0.89.
Work on `O=C(/C=C/c1cnc2ccccc2n1)NC12CC3CC(CC(C3)C1)C2` yielded a z-score of -0.473.
Compound `c1ccc(CCSc2nccn2-c2ccccc2)cc1` has a z-score of -0.227.
`Cc1ccc(C)c(Cn2c(=O)c3c(nc4n3CCN4Cc3ccco3)n(C)c2=O)c1` gave a z-score of -0.0936.
For `O=C(NCCCN1CCCC1=O)c1ccccc1NS(=O)(=O)c1ccc(F)cc1`, the z-score was -0.275.
`CCCOC(=O)c1c(NC(=O)/C=C/c2cnn(C)c2C)sc(C(=O)OCC)c1C` gave a z-score of 0.141.
`O=C(Cn1c2ccccc2c(=O)c2ccccc21)N/N=C/c1cc([N+](=O)[O-])ccc1N1CCCCC1` gave a z-score of 0.0373.
Compound `Cc1cc(/C=N/NC(N)=O)c(C)c(CO)c1` has a z-score of -0.0977.
`O=C(Cc1cccs1)NCc1ccccc1F` showed a z-score of 0.54.
Compound `COc1ccc(C(=O)N2CCN(C3CCCCC3)CC2)c(OC)c1` has a z-score of -0.579.
`COc1ccc(NC(=O)Cn2nnc(C(=O)NCc3ccco3)c2N)c(OC)c1` gave a z-score of 0.217.
`COc1ccccc1NC(=O)N(Cc1ccccc1)C1=NCC(C)S1` (centres undefined) gave a z-score of -1.04.
Compound `CCCc1cc(=O)[nH]c(SCC(=O)NC2CCCCC2)n1` has a z-score of -0.031.
Work on `NC(=S)Nc1cccc2cnccc12` yielded a z-score of 0.25.
`O=C(NCc1cn2ccccc2n1)c1ccc(Br)o1` gave a z-score of 0.0012.
Work on `Cc1cc(Oc2ccccc2)nc(N)n1` yielded a z-score of -0.402.
`CN1CCN(C(=O)c2cc3ccccc3oc2=O)CC1` was tested, and the z-score was 0.00294.
For `CCOc1ccc(Br)cc1-c1noc(-c2cccs2)n1`, the z-score was -0.00383.
Work on `Cc1cccc(C)c1Nc1ncnc(N)c1[N+](=O)[O-]` yielded a z-score of -0.246.
Work on `CCOC(=O)c1c(CSc2ccccc2)oc2ccc(O)cc12` yielded a z-score of -0.248.
`Cc1c(NC(=O)C(C)OC(=O)[C@@H](NC(=O)c2ccccc2)C(C)C)c(=O)n(-c2ccccc2)n1C` (some centres undefined) gave a z-score of -0.264.
Compound `Cc1ccc(CNC(=O)c2cn(C3CCCC3)c(=O)c3c2c2ccccc2n3C)o1` has a z-score of -2.41.
Work on `Cn1c(=O)[nH]c(=O)c2c1nc(Br)n2CC(O)c1ccccc1` (centres undefined) yielded a z-score of 0.0963.
For `COc1ccc(C)cc1S(=O)(=O)Nc1cccc(Cl)c1Cl`, the z-score was active: 3.68.
Work on `COc1ccc(/C=C/c2nc(-c3ccccc3O)n[nH]2)cc1` yielded a z-score of -0.343.
Compound `CC(C)NC(=O)CCCc1cn(C)c2ccccc12` has a z-score of 0.0315.
With `CCn1nc(CC(=O)Nc2nnc(CC(=O)N3CCCCC3)s2)c2ccccc2c1=O` the z-score was -0.638.
`S=c1[nH]nc2c3c4c(sc3ncn12)CCCC4` gave a z-score of 0.594.
With `CCN(CC)c1ccc(-c2nn3c(-c4cccnc4)nnc3s2)cc1` the z-score was -0.482.
Compound `COC(=O)C1=CN(Cc2cccs2)C=C(C(=O)OC)C1c1cccc(OC)c1OC` has a z-score of 0.516.
Work on `S=C(NCc1ccc2c(c1)OCO2)NCc1ccc2c(c1)OCO2` yielded a z-score of 0.252.
For `Cc1nn(C)c(C(=O)Nc2cccc(CN3CCOCC3)c2)c1Br`, the z-score was -0.375.
For `Cc1ccc(NC(=O)COc2cccnc2[N+](=O)[O-])cc1S(=O)(=O)N1CCCCC1`, the z-score was active: 4.45.
Work on `O=C(CSc1ccc2nnc(-c3cccnc3)n2n1)N1CCOCC1` yielded a z-score of -0.013.
With `CCN(CC)C(=O)C(=O)N/N=C/c1ccc(Br)cc1` the z-score was 0.0116.
Compound `O=C(C1CC1)N1CCN(C(c2ccccc2)c2ccccc2)CC1` has a z-score of -0.356.
Compound `S=c1[nH]nc(-c2cc(-c3ccco3)[nH]n2)n1-c1ccccc1` has a z-score of -0.141.
`CC1CCCC(C(=O)O)N1C(=O)CCSSCCC(=O)N1C(C)CCCC1C(=O)O` (centres undefined) was tested, and the z-score was -0.536.
`Cc1cc(=O)oc(C)c1C(=O)NCCN1CCOCC1` showed a z-score of 0.00346.
`CCOC(=O)c1c(C)n(C)c2cc(OCCN(CC)CC)ccc12` gave a z-score of 0.358.
For `C/C(=N\NC(=O)c1ccco1)c1ccc(NC(=O)c2cccs2)cc1`, the z-score was -0.261.
Compound `O=C(COC(=O)CNC(=O)C1CCCCC1)Nc1ccc2ccccc2c1` has a z-score of -0.285.
Compound `CC1CCCC(C)N1C(=O)COC(=O)c1ccc(O)cc1` (centres undefined) has a z-score of -0.19.
Compound `CCOC(=O)c1cc(C#N)c(Oc2ccc(F)cc2)nc1-c1ccccc1` has a z-score of -0.0477.
In the case of `CC(/C=N\NC(=O)Cn1c(C)nc2ccccc21)=C\c1ccccc1`, the z-score is reported as -0.11.
Compound `CCSc1n[nH]c2nc3c(c(=O)n12)C1(CCCC1)Cc1ccccc1-3` has a z-score of -0.626.
Compound `Cc1ccc(C(=O)Nn2c(O)c(C=C3N=c4ccccc4=N3)sc2=S)cc1` has a z-score of -0.326.
`CCCCOC(=O)Nc1nnc(/C=C/c2ccc(OC)cc2)s1` was tested, and the z-score was -0.231.
`CCOC(=O)Cn1nnnc1C(C(C)C)N(Cc1cccs1)Cc1cc2cc(C)ccc2[nH]c1=O` (centres undefined) showed a z-score of -0.36.
With `Cc1noc(NS(=O)(=O)c2ccc(NC(=O)COc3ccccc3)cc2)c1C` the z-score was 0.309.
In the case of `COC(=O)/C=C1\SC(=Nc2ccccc2)NC1=O`, the z-score is reported as -0.171.
`Clc1ccccc1-c1nnc2sc(CCc3ccccc3)nn12` was tested, and the z-score was active: -5.47.
`CCOc1ncccc1C(=O)OCC(=O)Nc1c(C)cccc1C` showed a z-score of 0.216.
`COc1cccc(C(=O)Nc2ccc(N(C)C)cc2)c1OC` was tested, and the z-score was -0.682.
Compound `CC(=O)c1ccc(O)c(CO)c1` has a z-score of 0.0351.
`Cc1cc2c(n1-c1ccc(Br)cc1)CC(C)(C)CC2=O` gave a z-score of -2.23.
`O=c1cc(CO)occ1OCc1cccc(C(F)(F)F)c1` was tested, and the z-score was 0.0103.
Work on `O=C(Nc1ccc(Oc2cccnc2)cc1)c1cccc([N+](=O)[O-])c1` yielded a z-score of -0.409.
For `Clc1ccc(-c2ccc(-c3nn4c(-c5ccco5)nnc4s3)o2)cc1`, the z-score was 0.507.
Work on `Cc1ccc(C2CC(c3ccccc3)=NN2C(=O)CSc2nnc(-c3ccncc3)n2C)o1` (centres undefined) yielded a z-score of 0.45.
`COc1ccc(CNC(=O)C2CC(=O)N(c3ccc(OCC(=O)N4CCCCC4)cc3)C2)cc1` (centres undefined) gave a z-score of 0.0285.
For `COC(=O)C1=C(C(=O)OC)C2C(C)=CC(C)=CN2C(C(=O)OC)=C1C(=O)OC` (centres undefined), the z-score was -0.46.
With `O=C(CSc1nnc2c(Cl)cc(C(F)(F)F)cn12)Nc1ccc2c(c1)OCO2` the z-score was 0.195.
`COC(=O)c1sc2ncccc2c1OCc1ccc(Cl)cc1Cl` gave a z-score of -0.208.
In the case of `CCCn1c(C(=O)OC)cc2c1ccn2-c1ccc(F)cc1`, the z-score is reported as 0.84.
For `Cc1nnc(SCC(=O)N(C(C)C)C(C)C)nc1C`, the z-score was 0.0386.
`Cc1ccc(S(=O)(=O)N2C(=S)SCC2(C)C)cc1` gave a z-score of 0.169.
